Measurements published in a collection of fitness landscapes (doi:10.1016/j.celrep.2020.107928).
Over roughly 81,000 sequences, “one-hybrid fitness for binding NBS DNA” has its median near -0.1; the highest 2% begin near 0.36. The list shows a part of the results.

B1: Caulobacter ParB omega fusion; a variant is named by its letters at X, in order, B8GW30 (parent)
chain: MESVVVGEPGMSEGRRGLGRGLSALLGEVDAAPAQAPGEQLGGSREAPIEILQRNPDQPRRTFREEDLEDLSNSIREKGVLQPILVRPSPDTAGEYQIVAGERAWRAAQRAGLKTVPIMVRELDDLAVLEIGIIENVQRADLNVLEEALSYKVLMEKFERTQENIAQTIGKSXSHVANXMRLLXLPDEVQSYLVSGELTAXHARAIAAAADPVALAKQIIEGGLSVRETEALARKAPNLSAGKSKGGRPPRVKDTDTQALESDLSSVLGLDVSIDHRGSTGTLTITYATLEQLDDLCNRLTRGI

Variants of: B1
Assay: one-hybrid fitness for binding NBS DNA (the Noc-binding site; scaled: cognate 1, non-cognate 0); higher = stronger binding
Details: with NBS DNA site
Outline: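 Fitness is the rescaled log change in variant-to-wild-type read ratio, measured by Illumina sequencing of plasmids before and after bacterial one-hybrid selection. The scale puts cognate at 1 and non-cognate at 0. Selection of Caulobacter ParB libraries, four specificity codons randomised, took place in E. coli USO with a HIS3 reporter, site 19 bp from the promoter, over 48 hours at 37°C on M9-minus-histidine with 0.1 mM IPTG and 5 mM 3-AT.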

Variant	one-hybrid fitness for binding NBS DNA
VFPC	≤ 0.2
SLSI	≤ 0.2
DVDS	≤ 0.2
TQSC	≤ 0.2
TPKP	≤ 0.2
SYVT	≤ 0.2
RMGT	0.432
VLSV	≤ 0.2
CNAS	≤ 0.2
KSQS	≤ 0.2
PFWV	≤ 0.2
EFPM	≤ 0.2
QNKL	≤ 0.2
TSKD	≤ 0.2
YRHG	≤ 0.2
QAWE	≤ 0.2
GSVC	≤ 0.2
RIYA	≤ 0.2
PPSN	≤ 0.2
PWQT	≤ 0.2
PGAV	≤ 0.2
LRIY	≤ 0.2
FTSA	≤ 0.2
MQSM	≤ 0.2
SRVR	≤ 0.2

Variant	one-hybrid fitness for binding NBS DNA
QEYS	≤ 0.2
FKVC	≤ 0.2
RLCN	≤ 0.2
MEGC	≤ 0.2
ELTS	≤ 0.2
KAWL	≤ 0.2
HMSR	≤ 0.2
KLWT	≤ 0.2
ALSI	≤ 0.2
ARSP	≤ 0.2
NSPD	≤ 0.2
APCL	≤ 0.2
RYDW	≤ 0.2
IYYS	≤ 0.2
AHSY	≤ 0.2
NRPI	≤ 0.2
CWMS	≤ 0.2
QTRL	0.406
TMLQ	≤ 0.2
KDPN	≤ 0.2
RHPF	≤ 0.2
HDAT	≤ 0.2
RTRM	0.29
SYHF	≤ 0.2
LQAV	≤ 0.2

Variant	one-hybrid fitness for binding NBS DNA
NHFP	≤ 0.2
RRVI	≤ 0.2
DCLG	≤ 0.2
GPKE	≤ 0.2
YLGT	≤ 0.2
GPSR	≤ 0.2
HIIF	≤ 0.2
KSPV	≤ 0.2
WHRV	≤ 0.2
VFER	≤ 0.2
LAYS	≤ 0.2
ATNG	≤ 0.2
PFRR	0.22
FDPS	≤ 0.2
VMKA	≤ 0.2
HREG	≤ 0.2
QFNK	≤ 0.2
FRAW	≤ 0.2
PHER	≤ 0.2
TTDP	≤ 0.2
FFTE	≤ 0.2
TQHM	≤ 0.2
AVPP	≤ 0.2
QHVY	≤ 0.2
CAVK	≤ 0.2

Variant	one-hybrid fitness for binding NBS DNA
VWAL	≤ 0.2
AAYR	≤ 0.2
NVGM	≤ 0.2
DRAG	≤ 0.2
LVHI	≤ 0.2
MEVG	≤ 0.2
IRRW	≤ 0.2
NSCS	≤ 0.2
AIVR	≤ 0.2
DTTL	0.357
DNWS	≤ 0.2
QDNH	≤ 0.2
GTLG	≤ 0.2
IRYA	≤ 0.2
ETLR	≤ 0.2
HFGY	≤ 0.2
LTVG	≤ 0.2
CHCI	≤ 0.2
PVCD	≤ 0.2
CQKF	≤ 0.2
PLHT	≤ 0.2
MSNG	≤ 0.2
TQLC	≤ 0.2
GRFL	≤ 0.2
NHIC	≤ 0.2

Variant	one-hybrid fitness for binding NBS DNA
QCAA	0.393
EDLF	≤ 0.2
TSPE	≤ 0.2
GVAY	≤ 0.2
FLVS	≤ 0.2
VPAL	≤ 0.2
VTNV	≤ 0.2
CRGW	≤ 0.2
INYR	≤ 0.2
PQYS	≤ 0.2
QCTQ	≤ 0.2
ILLN	≤ 0.2
YPYA	≤ 0.2
KVDT	≤ 0.2
YIMS	≤ 0.2
PYRW	≤ 0.2
SLYG	≤ 0.2
MDGS	≤ 0.2
ARRF	≤ 0.2
KKAY	≤ 0.2
YGGR	≤ 0.2
NRNY	≤ 0.2
MDTG	≤ 0.2
CKED	≤ 0.2
CTKL	≤ 0.2

Variant	one-hybrid fitness for binding NBS DNA
GSTQ	≤ 0.2
YEER	≤ 0.2
DPNA	≤ 0.2
PRHS	≤ 0.2
WHAF	≤ 0.2
KMTD	≤ 0.2
THHN	≤ 0.2
PMMR	≤ 0.2
AIQC	≤ 0.2
QTKN	0.56
CEQR	≤ 0.2
LVLR	≤ 0.2
LDNL	≤ 0.2
YEAT	≤ 0.2
SGWR	≤ 0.2
WIRS	≤ 0.2
YQSG	≤ 0.2
GHTC	≤ 0.2
VQYL	≤ 0.2
TPMY	≤ 0.2
MYDR	≤ 0.2
TIAW	≤ 0.2
PFNT	≤ 0.2
SWAD	≤ 0.2
AVTW	≤ 0.2

Variant	one-hybrid fitness for binding NBS DNA
RWSA	≤ 0.2
SRCI	≤ 0.2
YLIF	≤ 0.2
PELK	≤ 0.2
TNSM	≤ 0.2
TGIL	≤ 0.2
CRRI	≤ 0.2
VRYA	≤ 0.2
RMYD	≤ 0.2
YLMA	≤ 0.2
ESGV	≤ 0.2
TMKR	0.261
QYWH	≤ 0.2
ASNP	≤ 0.2
QYER	0.31
AWLA	≤ 0.2
RQHF	≤ 0.2
ELMI	≤ 0.2
VVPW	≤ 0.2
SCVQ	≤ 0.2
GWDN	≤ 0.2
FTGY	≤ 0.2
QSLN	≤ 0.2
EIRL	≤ 0.2
SDKD	≤ 0.2

Variant	one-hybrid fitness for binding NBS DNA
QILL	≤ 0.2
LCSD	≤ 0.2
CGAQ	≤ 0.2
NYKP	≤ 0.2
KRCF	≤ 0.2
YQNG	≤ 0.2
TAVT	≤ 0.2
REKC	≤ 0.2
AISD	≤ 0.2
QRCA	0.609
HWVQ	≤ 0.2
HDAV	≤ 0.2
QPIT	≤ 0.2
AKCC	≤ 0.2
HHDR	≤ 0.2
LDTM	≤ 0.2
VKFR	≤ 0.2
IQRY	≤ 0.2
NESL	≤ 0.2
KNNG	≤ 0.2
